Source: publication PMC4336329 (PLoS ONE, 2015)
The whole screen tested about 310,000 compounds, of which about 2,200 (0.71%) showed an effect of 50% or more. The effect is printed as a negative number. Some of the results follow.

biological target: human ether-à-go-go-related gene (hERG) potassium channel (human, UniProt Q12809); test: primary screen, population patch clamp on CHO cells stably expressing hERG
Sequence (Q12809 whole entry, looked up): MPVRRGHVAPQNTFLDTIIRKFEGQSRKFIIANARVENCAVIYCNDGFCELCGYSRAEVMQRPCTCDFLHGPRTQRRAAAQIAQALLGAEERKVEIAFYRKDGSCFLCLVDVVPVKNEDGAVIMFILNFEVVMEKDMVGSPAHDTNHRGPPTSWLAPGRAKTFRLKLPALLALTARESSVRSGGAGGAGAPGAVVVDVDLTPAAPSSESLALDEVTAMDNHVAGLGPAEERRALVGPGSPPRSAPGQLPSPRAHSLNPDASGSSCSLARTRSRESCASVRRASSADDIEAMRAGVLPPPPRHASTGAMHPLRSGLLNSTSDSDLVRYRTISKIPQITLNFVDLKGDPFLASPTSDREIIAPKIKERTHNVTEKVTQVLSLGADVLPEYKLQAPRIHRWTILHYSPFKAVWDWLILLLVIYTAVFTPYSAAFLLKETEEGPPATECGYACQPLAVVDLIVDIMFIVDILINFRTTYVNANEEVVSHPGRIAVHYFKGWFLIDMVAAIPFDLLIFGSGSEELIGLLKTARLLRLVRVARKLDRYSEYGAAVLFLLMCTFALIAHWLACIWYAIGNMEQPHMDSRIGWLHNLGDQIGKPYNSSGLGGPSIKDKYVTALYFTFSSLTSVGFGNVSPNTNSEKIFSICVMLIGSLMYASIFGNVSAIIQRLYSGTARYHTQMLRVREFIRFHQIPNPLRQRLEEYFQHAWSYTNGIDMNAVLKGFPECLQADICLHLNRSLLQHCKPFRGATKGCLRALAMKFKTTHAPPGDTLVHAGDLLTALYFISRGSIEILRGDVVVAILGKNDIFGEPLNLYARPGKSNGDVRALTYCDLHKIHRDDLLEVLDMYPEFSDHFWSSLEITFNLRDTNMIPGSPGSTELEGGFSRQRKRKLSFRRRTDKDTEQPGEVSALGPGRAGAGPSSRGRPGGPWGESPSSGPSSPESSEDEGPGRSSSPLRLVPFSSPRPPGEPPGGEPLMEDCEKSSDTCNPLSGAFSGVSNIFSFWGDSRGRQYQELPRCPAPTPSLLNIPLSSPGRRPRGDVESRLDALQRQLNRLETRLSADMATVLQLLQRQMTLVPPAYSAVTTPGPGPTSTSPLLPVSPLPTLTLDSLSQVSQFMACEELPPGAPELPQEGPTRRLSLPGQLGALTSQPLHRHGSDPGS

| SMILES | hERG current change (%, negative = inhibition) at 1uM |
| --- | --- |
| COC(=O)C1=C(c2ccccc2)C[C@@H]2CC[C@H]1N2C(=O)NC1CC1 | 7.4% |
| Cc1ccc(C(=O)NNC(=O)c2ccncc2)cc1S(=O)(=O)N1CCCCC1 | 9.84% |
| CCC(C)NC(=O)c1ccc2nc(-c3ccc(OC)c(OC)c3)c(-c3ccc(OC)c(OC)c3)nc2c1 (stereo not shown) | 12.6% |
| CSCC[C@H](NC(=O)c1cc2c([nH]c3ccccc32)c(-c2ccccc2)n1)C(=O)O | 12.9% |
| O=C(NC1CC1)c1ccc(CS(=O)(=O)c2c(Cl)cccc2Cl)o1 | -0.0108% |
| NS(=O)(=O)c1ccc(CNC(=O)c2cc(=O)c3ccccc3o2)cc1 | 9.66% |
| CCn1ncc(/C=N/NC(=O)c2cc(Cl)ccc2OC)c1C | -0.985% |
| C=CCn1c(-c2ccc3[nH]c(C)c(C)c3c2)n[nH]c1=S | 6.92% |
| Cn1c(O)c(N=Nc2nc(-c3ccccc3)cs2)c2ccccc21 | 0.0848% |
| CN(C)S(=O)(=O)c1cccc(NC(=O)c2cncc(Br)c2)c1 | 5.36% |
| CCOC(=O)C(NS(=O)(=O)c1ccccc1)(C(F)(F)F)P(=O)(OC(C)C)OC(C)C (stereo not shown) | 19.2% |
| N#C/C(=C\c1cccnc1)C(=O)Nc1ccc(SC(F)F)cc1 | 9.66% |
| Cc1cc(NC(=O)c2ccccc2)n(-c2nc3ccccc3[nH]2)n1 | 16% |
| Cc1nn(CC(=O)c2ccccc2)c(=O)c2nn(-c3ccccc3F)c(C)c12 | 13.9% |
| Cc1ccc(C(=O)N2CCN(Cc3ccc4c(c3)OCO4)CC2)cc1S(=O)(=O)N1CCOCC1 | 0.748% |
| Cc1cc(N2CCN(c3nnnn3-c3ccccc3)CC2)n2ncnc2n1 | -29.6% |
| COc1cccc(/C=C2\SC(=O)N(CCC(=O)NC3CCS(=O)(=O)C3)C2=O)c1 (stereo not shown) | 13.2% |
| O=C(COC(=O)c1ccc(O)cc1)Nc1cccc(S(=O)(=O)N2CCCCC2)c1 | -3.31% |
| CC(=O)N1CCCN(Cc2nc(C3(c4ccc(C)cc4)CCCC3)no2)CC1 | 19.3% |
| Cc1ccc(/C=N/c2sc3c(c2C#N)CCC3)o1 | 6.51% |
| O=C(/C=C/c1ccccc1Cl)N1CCCN(C(=O)/C=C/c2ccccc2Cl)CC1 | -19.7% |
| COc1ccc(Cl)cc1C(=O)NCc1ccco1 | 8.96% |
| COc1ccc(N2CCN(C(=O)CN3C(=O)NC4(CCCc5ccccc54)C3=O)CC2)cc1 (stereo not shown) | 2.48% |
| COc1ccc(N(C)S(=O)(=O)c2cccc3cccnc23)c(OC)c1 | 11.3% |
| O=c1c(Br)c(N2CCOCC2)cnn1-c1ccccc1 | 15.2% |
| COc1ccccc1-n1c(SCC(=O)N2CCCCC2)nc(O)c(Cc2ccccc2)c1=O | 14.1% |
| C/C(=N\Nc1nccnc1Cl)c1ccc([N+](=O)[O-])cc1 | 2.97% |
| CCn1c(N2CCN(C(=S)NCCc3ccccc3)CC2)nc2ccccc21 | -10.5% |

| SMILES | hERG current change (%, negative = inhibition) at 1uM |
| --- | --- |
| O=C(CSc1nnnn1Cc1ccccc1)Nc1ccc2c(c1)OCO2 | 5.49% |
| Cc1ccc(C2C(C(=O)O)c3ccccc3C(=O)N2C)o1 (stereo not shown) | 4.55% |
| CCN(CC)c1ccc(C(=O)NNC(=O)c2ccc3c(=O)n4c(nc3c2)CCC4)cc1 | 12.6% |
| CCCCn1c(N)c(N(CC(C)C)C(=O)c2ccc(-n3c(C)ccc3C)cc2)c(=O)[nH]c1=O | 19.6% |
| CN(C)c1nc(Oc2ccc(=O)[nH]n2)nc(N2CCOCC2)n1 | 10% |
| COCCn1c(SCC(=O)Nc2cccc(S(N)(=O)=O)c2)nc2ccccc21 | 7.14% |
| CCc1c(C)c2ccc(OCC(=O)NCC3CCC(C(=O)O)CC3)cc2oc1=O (stereo not shown) | 11% |
| COc1ccc(NS(=O)(=O)c2ccc(C)c(NC(=O)C3CCCO3)c2)cc1 (stereo not shown) | -2.11% |
| Cc1c(C#N)c(NC(=O)CCl)n(Cc2ccc(F)cc2)c1C | 13.1% |
| CN1CCN(C(=O)c2cc3nc(-c4ccc(Cl)cc4)cc(C(F)(F)F)n3n2)CC1 | -1.45% |
| CC(=O)N1CCSc2ccc(S(=O)(=O)N3CCC(C)CC3)cc21 | 7.4% |
| COc1ccccc1OCC(=O)OC/C(O)=C(\C#N)c1nc2ccccc2[nH]1 | 8.29% |
| COc1ccc(-c2[nH]ncc2CN2CCN(Cc3cccs3)CC2)cc1F | -0.183% |
| COC(=O)c1ccc(COC(=O)CCc2nc(-c3ccccc3)c(-c3ccccc3)o2)cc1 | -0.402% |
| CCCCN(C)C(=O)C1CCCN(S(=O)(=O)c2ccc3c(c2)CC(C)N3C(=O)C2CC2)C1 (stereo not shown) | 0.928% |
| COc1cccc(C2=NN(C(=O)CCCC(=O)O)C(c3cccs3)C2)c1 (stereo not shown) | 15.6% |
| O=C(O)c1ccc(S(=O)(=O)Nc2ccc3c(c2)OCCO3)cc1 | 4.41% |
| O=C(Nc1ccc(NC(=O)c2ccco2)nc1)c1ccco1 | 3.4% |
| CCOC(=O)C1CCN(C(=O)C2CCN(c3nc4ccc(OC)cc4s3)CC2)CC1 | -53.4% |
| Cc1cn2c(nc1=O)OC1CC2OC1CO (stereo not shown) | 13.7% |
| C=CCOC(=O)C1=C(C)Nc2ncnn2C1c1cc(Br)ccc1F (stereo not shown) | -1.52% |
| CCN(CC)CCSc1nc2ccccc2c(=S)n1-c1ccccc1.Cl | 4.78% |
| COC(=O)c1ccccc1CC1SC(N)=NC1=O (stereo not shown) | 14.3% |
| CC(CNC(=O)C1CCCCC1C(=O)O)c1ccccc1 (stereo not shown) | -4.71% |
| CN(Cc1nc(-c2ccccc2)no1)C(=O)c1ccco1 | 11.9% |
| CCOC(=O)c1ccc(S(=O)(=O)NC2CCCCCCC2)n1C | 10.1% |
| COc1ccc2[nH]c(=O)c(-c3noc(-c4ccccc4)n3)cc2c1 | 8.48% |
